This is one part of the list. These are noisy estimates, calculated here from bound and input reads.

The target of the assay is T1, Pho4 (S. cerevisiae) (UniProt P07270).
T1 sequence: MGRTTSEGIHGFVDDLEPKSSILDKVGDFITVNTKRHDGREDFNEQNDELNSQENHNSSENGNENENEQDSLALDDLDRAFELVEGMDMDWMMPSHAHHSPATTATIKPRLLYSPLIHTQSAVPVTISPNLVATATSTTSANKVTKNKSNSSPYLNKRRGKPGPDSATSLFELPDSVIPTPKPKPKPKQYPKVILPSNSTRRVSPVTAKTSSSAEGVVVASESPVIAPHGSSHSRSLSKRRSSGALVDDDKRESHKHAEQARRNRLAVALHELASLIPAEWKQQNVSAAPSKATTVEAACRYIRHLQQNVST
Briefly: relative binding free energy (BET-seq); higher = weaker binding. The conditions noted are these: reference: library average.
As to TAGAGCACGTGGTGCG, the “relative binding free energy” value was -0.28 kcal/mol.
The value for GCGATCACGTGCGGGG was 0.15 kcal/mol; that for TGTGACACGTGTTGAA was -0.01 kcal/mol.
The value for ATAAGCACGTGATAGT was 0.06 kcal/mol; that for GGGTGCACGTGACCGG was 0.02 kcal/mol; that for GCGATCACGTGTAGGT was 0.16 kcal/mol.
On to TTGAGCACGTGAGTTA, for which the “relative binding free energy” value was 0.12 kcal/mol.
The value for AGAGTCACGTGATTTG was 0.24 kcal/mol; that for AGTCACACGTGTTAAG was 0.15 kcal/mol.
TATAGCACGTGAGAGT: the “relative binding free energy” value was found to be 0.21 kcal/mol.
The value for TGTTTCACGTGGCACG was 0.22 kcal/mol; that for AGTAACACGTGTAAAT was 0.14 kcal/mol; that for ATGGGCACGTGGGTGG was -0.2 kcal/mol.
The value for TAGAACACGTGAGTTT was 0.2 kcal/mol.
With TGGGGCACGTGTCGCG, the “relative binding free energy” value is -0.23 kcal/mol.
As to AAGAACACGTGGGAGT, the “relative binding free energy” value was found to be 0.11 kcal/mol.
As to TGGTCCACGTGAGGGA, the “relative binding free energy” value amounted to 0.16 kcal/mol.
Regarding TTTCTCACGTGGGTTA, the “relative binding free energy” value is 0.1 kcal/mol.
GCTAACACGTGTAGGG: the “relative binding free energy” value is 0.04 kcal/mol.
The value for TAAGTCACGTGAGCGT was 0.17 kcal/mol.
The value for CGGGGCACGTGCTCGG was -0.14 kcal/mol.
The value for TTGACCACGTGTTGGA was -0.02 kcal/mol.
Regarding GACATCACGTGGGAGG, the “relative binding free energy” value stood at 0.17 kcal/mol.
The value for CGTGACACGTGGTAGA was -0.03 kcal/mol.
The value for GGGTCCACGTGGGTGC was -0.11 kcal/mol; that for TTTATCACGTGCCGGG was 0.11 kcal/mol.
The value for GTTTCCACGTGGGTCT was 0.02 kcal/mol; that for TTTGGCACGTGTATGG was -0.02 kcal/mol.
With TGGGACACGTGGATCG, the “relative binding free energy” value came out at 0.06 kcal/mol.
As to TTTATCACGTGGGTAG, the “relative binding free energy” value is 0.12 kcal/mol.
The value for AGGATCACGTGTTGAA was 0.19 kcal/mol; that for AGGAGCACGTGTTCGG was -0.19 kcal/mol; that for TGAGACACGTGGTCGT was 0.02 kcal/mol.
The value for GAGGTCACGTGTTGGA was 0.29 kcal/mol; that for ATGTTCACGTGTTTCA was 0.29 kcal/mol; that for GTGTACACGTGAAGGT was 0.26 kcal/mol.
Take GGGTACACGTGGCGTT: the “relative binding free energy” value turned out to be 0.18 kcal/mol.
For the sequence TCAGTCACGTGTTCTT, the “relative binding free energy” value is 0.17 kcal/mol.
In the case of AATGGCACGTGGTAAG, the “relative binding free energy” value is -0.13 kcal/mol.
For the sequence GGGGTCACGTGGTTCT, the “relative binding free energy” value came to 0.25 kcal/mol.
Turning to TAAGGCACGTGTGTTG, the “relative binding free energy” value is -0.01 kcal/mol.
In the case of TAGATCACGTGTGGAT, the “relative binding free energy” value came to 0.22 kcal/mol.
The value for CGCGCCACGTGGGGGG was -0.34 kcal/mol; that for AGACACACGTGATGGG was 0.2 kcal/mol.
The value for GGACGCACGTGGGATT was -0.1 kcal/mol.
Regarding CGGGGCACGTGTGACG, the “relative binding free energy” value was 0.01 kcal/mol.
The value for TTGTTCACGTGGTGGC was 0.2 kcal/mol.
The value for TAGGGCACGTGGTCTA was -0.19 kcal/mol.
The value for GTCTCCACGTGTGGTG was 0.08 kcal/mol.
On to TCTGTCACGTGATTTG, for which the “relative binding free energy” value was found to be 0.25 kcal/mol.
Consider AAGTCCACGTGGTTTT, for which the “relative binding free energy” value is -0.02 kcal/mol.
With TGGAACACGTGGGTGG, the “relative binding free energy” value is 0.03 kcal/mol.
As for CGCTGCACGTGGTGTT, the “relative binding free energy” value is -0.19 kcal/mol.
The value for CTTGACACGTGGGGTG was -0.13 kcal/mol.
The value for GACGCCACGTGGGGTG was -0.09 kcal/mol.
As to AGAGGCACGTGGTTAG, the “relative binding free energy” value is -0.24 kcal/mol.
The value for GGGTTCACGTGAGCGT was 0.27 kcal/mol; that for TTTGTCACGTGTACCG was 0.08 kcal/mol.
The value for TTTGACACGTGTCTGA was 0.09 kcal/mol; that for TGGAACACGTGGAGAT was 0.05 kcal/mol; that for TTAAGCACGTGTTTGA was -0.29 kcal/mol.
The value for GTGGTCACGTGCTGAG was 0.16 kcal/mol; that for TGTCACACGTGGTGGG was -0.01 kcal/mol; that for TCAGGCACGTGGGGAG was -0.27 kcal/mol.
For TTGTTCACGTGAAGGC, the “relative binding free energy” value was 0.35 kcal/mol.
Take TCTATCACGTGAAGGT: the “relative binding free energy” value turned out to be 0.41 kcal/mol.
For the sequence TGTGGCACGTGGAGCG, the “relative binding free energy” value was -0.12 kcal/mol.
The value for ACGGTCACGTGTTATT was 0.09 kcal/mol; that for TGACTCACGTGGTTGG was 0.21 kcal/mol.
The value for AGCGTCACGTGGGATT was 0.01 kcal/mol; that for GGAGGCACGTGTGAAG was 0.04 kcal/mol; that for TGTATCACGTGTGCAA was 0.17 kcal/mol.
The value for ATGCACACGTGTGGAT was 0.1 kcal/mol; that for CATTACACGTGTGCGG was 0.15 kcal/mol.
For the sequence AGTTGCACGTGGGAAA, the “relative binding free energy” value was -0.03 kcal/mol.
The value for TGAATCACGTGAGAGG was 0.27 kcal/mol; that for TTTCACACGTGTGTAT was -0.05 kcal/mol.
The value for TTTGGCACGTGCATGT was -0.26 kcal/mol; that for TGTTTCACGTGATGGT was 0.42 kcal/mol; that for TTATTCACGTGCTCGG was 0.2 kcal/mol.
The value for GGTGTCACGTGCGATT was 0.15 kcal/mol.
In the case of TACGGCACGTGTAGGA, the “relative binding free energy” value came to 0.06 kcal/mol.
The value for TGTTACACGTGCGTGC was 0.07 kcal/mol; that for ATTAACACGTGTGGGT was -0.03 kcal/mol.
GTGTTCACGTGGGGTT: the “relative binding free energy” value came out at 0.21 kcal/mol.
The value for TCTGTCACGTGACAGG was 0.19 kcal/mol; that for TCCGTCACGTGTGAGT was 0.16 kcal/mol.
The value for GGGTACACGTGTAAGT was 0.14 kcal/mol.
Regarding AGGTACACGTGTAGTG, the “relative binding free energy” value amounted to 0.07 kcal/mol.
Turning to AGTTGCACGTGACAGT, the “relative binding free energy” value was determined as 0.12 kcal/mol.
The value for TAGGGCACGTGGACGC was -0.03 kcal/mol; that for AAGCACACGTGAGGGG was 0.3 kcal/mol.
In the case of TATGACACGTGTTCGG, the “relative binding free energy” value is -0.13 kcal/mol.
The value for CGGCGCACGTGATGGT was 0.02 kcal/mol.
The value for GGTGACACGTGGCATT was -0.09 kcal/mol; that for ATTTACACGTGATCGT was 0.09 kcal/mol.
Turning to TTAGCCACGTGAAGGT, the “relative binding free energy” value came to 0.11 kcal/mol.
As for CATGGCACGTGTGGAT, the “relative binding free energy” value was -0.08 kcal/mol.
The value for ATGCGCACGTGCAGGT was -0.18 kcal/mol; that for TGACTCACGTGGGTTA was 0.03 kcal/mol.
With TTTGTCACGTGCAAGT, the “relative binding free energy” value came to 0.09 kcal/mol.
Turning to ATTTTCACGTGTTAGT, the “relative binding free energy” value came to 0.18 kcal/mol.
As for GTCGTCACGTGGTAGA, the “relative binding free energy” value was determined as 0.04 kcal/mol.
The value for GTCGTCACGTGGTTGG was 0.05 kcal/mol; that for CGTTGCACGTGTGGAG was 0.02 kcal/mol.
Turning to TGAAGCACGTGGTAAT, the “relative binding free energy” value was -0.16 kcal/mol.
The value for AGGAACACGTGTGGAT was 0.08 kcal/mol.
The value for TCGTTCACGTGGTTAA was 0.12 kcal/mol.
Regarding ATTCACACGTGATGTT, the “relative binding free energy” value came to 0.21 kcal/mol.
The value for TTTGCCACGTGGAGTA was -0.13 kcal/mol; that for GTTTTCACGTGTTCTT was 0.35 kcal/mol; that for ATGAGCACGTGATTGT was -0.02 kcal/mol.
In the case of GGTTCCACGTGTGGTT, the “relative binding free energy” value came to 0.14 kcal/mol.
The value for CTTTGCACGTGTCGGG was -0.03 kcal/mol; that for GGGCTCACGTGACTGG was 0.37 kcal/mol.

The record behind these values is the BET-seq Pho4 binding data (Le et al. 2018).
